Measured values from PubChem BioAssay AID485313 (National Center for Advancing Translational Sciences (NCATS), 2010).
The campaign covered roughly 320,000 compounds. About 7,600 (2.4%) were called active. Inconclusive results, whose numbers are uncertain, are shown with a selection of clear calls. The call rests on the fitted dose curve; in most records, active means well fitted activation curve with a large enough effect; inconclusive means small, poorly fitted or top-dose-only effect; inactive means no such curve, though single readings can be large or run the other way. A potency beside an inconclusive call is a rough fit, not a confirmed value.

experiment: qHTS Assay for NPC1 Promoter Activators; conditions: Huh7 NPC1 promoter luciferase reporter, 24 h; series mostly up to 9.22 µM; activation: at the top concentration; further: nearly all actives have a fitted effect of over 60% in size;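 on activation: reporter is driven by a mutant NPC1 promoter; % of control where 0% means no effect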
In short: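 Stable NPC1-promoter luciferase Huh7 line; cpd (DMSO) 24 h, 37 °C, 5% CO2; Amplite luciferase reagent 10 min RT; luminescence readout. qHTS format.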
Potency means the concentration at half of the fitted maximal effect; tags describe the fitted curve by direction and shape.

Potency, active:
COC(=O)c1cccc(NC(=O)NC(=O)c2ccccc2Cl)c1 1.26 µM
O=C(COC(=O)c1cccs1)c1ccc2c(c1)OCCO2 1.58 µM
Cc1ccc(C)c(NC(=O)c2ccc3ccccc3n2)c1 3.98 µM
O=C(c1ccc(F)cc1)c1ccc(N2CCCCC2)cc1 2.82 µM
O=C(CSc1nnc(NC(=O)c2ccccc2)s1)NCc1ccco1 2.82 µM
N#Cc1cc2c(nc1SCC(=O)Nc1nccs1)CCCCC2 0.282 µM
CC(C)Cc1ccc(/C=C/C(=O)N2CCCCC2)cc1 2.51 µM
COc1ccc2c(c1)C(=O)c1ccccc1CO2 3.98 µM
N#CC1(c2ccc(NC(=O)c3ccccc3)cc2)CCCC1 0.282 µM
N#Cc1c(/N=C/c2ccco2)sc2c1CCCCC2 0.794 µM
Clc1ccc2nc(CSCc3ccccc3)cn2c1 1.58 µM
CC(Cc1ccco1)NC(=O)c1ccc(C(F)(F)F)cc1 (configuration not stated) 0.708 µM
Cc1ccc(/C=C/C(=O)Nc2ncc(C)s2)o1 3.55 µM
Cc1ccc(C)c(OCc2cc(C(=O)N3CCN(c4ccccc4)CC3)no2)c1 2.82 µM

Potency, inconclusive:
Cc1ccc2nc(NC(=O)c3cccc(-c4cc5ccccc5oc4=O)c3)sc2c1 3.98 µM [activator, partial curve]
Cc1ccc(-n2nnnc2SCn2nnc3ccccc3c2=O)cc1 2.24 µM [activator, partial curve]
CN(C)/C=C1\SC(=S)N(c2ccc(Br)cc2)C1=O 3.16 µM [activator, partial curve]
CCOC(=O)c1c(C)[nH]c(C(=O)CSc2ccc(Cl)cc2)c1C 3.55 µM [activator, partial curve]
COc1cc(N=CC2=C(O)c3ccccc3C2=O)cc(OC)c1 6.31 µM [activator, single point]
O=C(Nc1cccc(O)c1)c1noc2c1CCc1ccccc1-2 6.31 µM [activator, single point]
O=C(OCc1ccccc1F)c1ccc2c(c1)OCCO2 3.16 µM [activator, partial curve]
O=C(c1ccco1)N1CCn2c1nc1ccccc12 3.55 µM [activator, partial curve]
CCOc1ccc(NC(=O)c2cc3ccccc3cc2OC)cc1 1.58 µM [activator, partial curve]
O=C(COC(=O)c1cccs1)c1ccccc1 2.82 µM [activator, partial curve]
O=Cc1cc(-c2ccccc2)[nH]c1-c1ccccc1 3.16 µM [activator, partial curve]
CN1CCN(C(=S)NC(=O)/C=C/c2cccc3ccccc23)CC1 3.98 µM [activator, single point]
CCOc1ccc(/C=C/C(=O)Nc2cccc(C(C)=O)c2)cc1 5.01 µM [activator, single point]
CCOc1ccc(NC(=O)c2cc3ccccc3cc2O)cc1 1.26 µM [activator, partial curve]
O=C(COC(=O)c1ccc(Cl)nc1)Nc1ncc(Cl)cc1Cl 5.62 µM [activator, single point]
CCc1ccc(NC(=O)c2sccc2-n2cccc2)cc1 1.78 µM [activator, partial curve]
COc1ccc(C(=O)/C=C/c2ccccc2)c(OC)c1 3.55 µM [activator, single point]
O=C(Nc1nc2ccccc2[nH]1)C1CCC1 2.51 µM [activator, partial curve]
CC(C)c1ccc(NC(=O)N2CCOCC2)cc1 5.62 µM [activator, single point]
Cc1ccc(NC(=S)Nc2ccccn2)c(C)c1 2.82 µM [activator, partial curve]
Cc1ccc(C(=O)NCc2ccc3c(c2)OCO3)cc1C 0.501 µM [activator, full curve]
CCOC(=O)c1c(C)oc2c1cc(O)c1ccccc12 5.62 µM [activator, single point]
CCOc1ccc2nc(N3CCCC(C(=O)N4CCN(CC)CC4)C3)sc2c1 (configuration not stated) 3.98 µM [activator, partial curve]
Cc1c(C(=O)Nc2nc3ccccc3[nH]2)oc2ccccc12 3.98 µM [activator, single point]
COC(=O)c1ccc(NC(=O)Nc2cccc(F)c2)cc1 1.41 µM [activator, partial curve]
COc1ccc2c(c1)CCC1C2=NN(/C(C)=C\C(C)=O)C1c1ccc(F)cc1 (configuration not stated) 5.62 µM [activator, single point]
COc1ccc(NC(=O)/C=C/c2ccccc2)c([N+](=O)[O-])c1 2.51 µM [activator, partial curve]
Cc1ccc(C)n1-c1ccc(C(=O)Nc2ccccc2F)cc1 3.16 µM [activator, single point]
NC(=O)c1sc2nc(-c3cccs3)ccc2c1N 3.16 µM [activator, single point]
O=C(Nc1cccc(Cl)c1)OCCOc1ccccc1 3.16 µM [activator, partial curve]
CC(=O)c1ccc(NC(=O)C2(c3ccccc3)CC2(Cl)Cl)cc1 (configuration not stated) 3.16 µM [activator, partial curve]
[O-]/[N+](=C\c1ccc(OC(F)F)cc1)c1ccccc1 5.62 µM [activator, single point]
CC(C)NC(=O)CSc1nc(-c2ccccc2)cs1 2.82 µM [activator, partial curve]
COc1ccc(COc2cccc(C=O)c2)cc1 0.355 µM [activator, partial curve]
CCOC(=O)c1c(C)[nH]c(C(=O)COC(=O)C2(C)CC2(Cl)Cl)c1C (configuration not stated) 2.24 µM [activator, partial curve]
CCN(CC)c1ccc(NC(=O)Nc2ccccc2C(F)(F)F)cc1 3.98 µM [activator, single point]
Cc1ccc(-c2noc(C3CCCN(C(=O)c4cccc([N+](=O)[O-])c4)C3)n2)o1 (configuration not stated) 0.708 µM [activator, partial curve]
CCCCCOc1ccc(CSc2ncn[nH]2)cc1 3.16 µM [activator, partial curve]
COc1ccc(-c2csc(N3CCSCC3)n2)cc1 5.62 µM [activator, single point]
S=C(NCCC1=CCCCC1)Nc1ccccc1 3.16 µM [activator, single point]
O=C(Oc1ccc(Oc2ccccc2)cc1)N1CCC(O)CC1 3.16 µM [activator, single point]

activation, inactive:
Cc1cccc(NC(=S)NNC(=O)c2ccccc2Br)c1 21.6%
O=C(CCNC(=O)c1ccc(Br)cc1)NCCCSc1ccccc1 -0.963%
Cc1cc(N/N=C/c2ccccc2O)nc(N2CCOCC2)n1 3.51%
CCCCCCC(=O)c1c(C)[nH]c(C(=O)OCC)c1C 25.9%
CCN(CC)CCCN(Cc1cc2cc3c(cc2[nH]c1=O)OCO3)C(=S)Nc1ccc(OC)cc1 0.102%
Cc1c(C(=O)N(C)C)sc2nc(-c3ccccn3)[nH]c(=O)c12 11.1%
Cc1cnc(NC(=O)C2(c3ccccc3)CC2)s1 12.2%
O=C(Nc1cccnc1)c1cccc(-c2cc3ccccc3oc2=O)c1 17.6%
COc1ccccc1N1CCN(C(=O)CSc2ncnc3c2cnn3-c2ccc(C)c(C)c2)CC1 25.1%
CCCCc1nn(-c2cc(Cl)ccc2OC)c2c1C(=O)CCC2 0.581%
COc1ccc(OC)c(-c2nc3c(C)n[nH]c(=O)c3[nH]2)c1 -1.45%
Cc1ccc(CNC(=O)COC(=O)c2ccc(Br)o2)cc1 -0.846%
CCc1ccccc1NC(=O)C1CCCN(c2ncccn2)C1 (configuration not stated) 0.641%
O=C(Nc1ccc(F)cc1)c1ccc2c(=O)n(CC3CCCO3)c(=S)[nH]c2c1 (configuration not stated) -4.02%
COC(=O)c1ccc2c(=O)n(CCN3CCOCC3)c(SCC(=O)NCc3ccccc3)nc2c1 1.52%
Brc1cc(Cc2nnc(-c3ccccc3)o2)c(Br)s1 1.68%
Nc1ccc(-c2nc3c(Cl)cc(N)cc3[nH]2)cc1 -26.3%
COc1ccccc1NS(=O)(=O)c1cc(NC(=O)Cn2cnc3c2c(=O)n(C)c(=O)n3C)ccc1C 1.34%
O=C(COc1ccccc1[N+](=O)[O-])N1CCCc2ccccc21 2.28%
Nc1c(C(=O)OCC(=O)Nc2ccc(OC(F)F)cc2)[nH]c(=O)[nH]c1=O 0.835%
Cc1cc(C)n(CC(=O)O)n1 -2.93%
CC(C(=O)NC1CCCc2ccccc21)N1C(=O)C2CCCCC2C1=O (configuration not stated) -1.91%
O=C(O)c1ccccc1N=Cc1c(O)n(-c2nccs2)c(=O)c2ccccc12 -2.43%
COc1ccccc1N(C)S(=O)(=O)c1ccc(C(=O)Nc2nc(C)cs2)cc1 -5.14%
COc1cc(Cl)ccc1OCc1cc(C(=O)NCC(C)(C)N2CCOCC2)no1 22.6%
Cc1cccc(Cn2cnc3c(sc4nc(C)cc(C)c43)c2=O)c1 -2.64%
COc1cc(/C=C2/C(=N)N3N=C(CC(=O)N4CCOCC4)SC3=NC2=O)ccc1OCc1ccc(F)cc1 0.655%
